Experimental findings from the RNAGym collection of RNA variant scans (doi:10.1073/pnas.2313332121) are described below.

Variants at the background level are over-represented here. A value given as a limit tells only on which side of the number the result lay.

Sequences and labels used below:
B1: TPR 5TU (parent)
chain: GGAUCUUCUCGAUCUAACAAAAAAGACAAAUCUGCCACAAAGCUUGAGAGCAUCUUCGGAUGCAGAGGCGGCAGCCUUCGGUGGCGCGAUAGCGCCAACGUUCUCAACUAUGACACGCAAAACGCGUGCUCCGUUGAAUGGAGUUUAUCAUG

In this data set the parent is B1. Briefly: polymerase ribozyme fitness, log enrichment relative to wild type (log ratio); higher = more active; in vitro selection for triplet polymerase activity. The gist of the method:
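Mutant libraries were PCR-built and transcribed for each subunit of a heterodimeric triplet polymerase ribozyme and selected for one round in triplicate at −7 °C, frozen, before gel excision of extended constructs and streptavidin-bead capture. Input and output libraries were Illumina-sequenced, keeping genotypes with ≥10 input reads and ≥1 read per output. Fitness is a logarithmic ratio of genotype to wild-type enrichment, in base 2, using inverse-variance-weighted replicate averages.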
Consider U4C A19U G86U, for which the “polymerase ribozyme fitness (log ratio)” value was -2.06.

For the variant A3U C14A A22C C27A U77A C87U G133U, the “polymerase ribozyme fitness (log ratio)” value is at most -4.2. As for A3U A30G C35G A39U G59A A60C C87U U134A, the “polymerase ribozyme fitness (log ratio)” value is at most -4.2. Consider U4C C38U G59C G80C U104C G140U, for which the “polymerase ribozyme fitness (log ratio)” value was at most -4.2. Under C5A A17C C18U C76G U82G C95U A110G C125A U134C stands at most -4.2; under C5A C38U G59A C87G C103A A121U G126A U146C, at most -4.2; under C5A A19C C35G A37U A39C U55A G112C, at most -4.2. Under A3U A22C U44G U45G C96U C114G G133A U134A stands at most -4.2.

Turning to A3G U31G C75U G83C, the “polymerase ribozyme fitness (log ratio)” value was at most -4.2. With U4A U9G A24U C27A A122C, the “polymerase ribozyme fitness (log ratio)” value is at most -4.2. As for U4G C27U A97U, the figure is -2.22; as for U4C A16G C85A C99G G141C, at most -4.2; as for U4A C14A U44G G92U A106G A113C, at most -4.2. As for C5A A17C A37U A47U C85G G92U G136A G141A, the figure is at most -4.2; as for C5A C69G G84A C108U, -3.39. As to A3G A17U A60U, the “polymerase ribozyme fitness (log ratio)” value was -1.21. As for U4G G42A A47U G62U C63A A73G C87G U127A U134A A137U, the figure is at most -4.2; as for A3U C18U A49C A52C U53A C54G G58C C85U C99G U104C A138U, at most -4.2. Under A3C U56A A91G G140A stands at most -4.2; under U4A C75A C76U G86A C123U, at most -4.2.

For A3G C27U U55A U90C G94U C114G C116A, the “polymerase ribozyme fitness (log ratio)” value was at most -4.2. As for U4G A22C A23C U55A G84A G126U, the figure is at most -4.2; as for U4G A21G A28U G81A A89C A91G C129G, at most -4.2; as for U4G C5G A29G A52U G67U C79G G83A, at most -4.2. Consider U4G U6C A19U C85U C103G, for which the “polymerase ribozyme fitness (log ratio)” value is at most -4.2.

Consider A3G A12C A41C C95U C99U G124U U139A, for which the “polymerase ribozyme fitness (log ratio)” value was at most -4.2. As for A3G U13A U56A C96A A138G, the figure is at most -4.2; as for U4C U33A A40U U82G C96G C108U C118U U139C U148A, at most -4.2. As for A3U C27G G50C C95U A150G, the figure is at most -4.2; as for A3G C14G A147U, -2.9. For the variant C5A C57U G71C G92A A150C, the “polymerase ribozyme fitness (log ratio)” value was at most -4.2. Under A3G U4A C54U U102G C125G stands -3.99; under A3G C35A U144A, at most -4.2. As for U4A A23G A24U A26U U31C C75A U77G C129U, the figure is at most -4.2.

Regarding C5A U15C U56A C105G A107C G117U U139C G143C U148C, the “polymerase ribozyme fitness (log ratio)” value was at most -4.2. Consider U4A C36A U55C U82A A119C, for which the “polymerase ribozyme fitness (log ratio)” value was at most -4.2. Consider C5A C10G C14G G48A C54U G58A C87U A91U C123A, for which the “polymerase ribozyme fitness (log ratio)” value was at most -4.2.

On to U4C A29C C54U G84A A97U, for which the “polymerase ribozyme fitness (log ratio)” value was at most -4.2. Under A3G C93A C108U C125G A142G U145G U146A stands at most -4.2. As for U4C U55A, the figure is -0.767; as for A3U G34A A60C C85U A98G C125U, at most -4.2. Under A3G C8G A28G G46U G50A G67C G92C A107U G143U stands at most -4.2. Consider A3G A73U A121U, for which the “polymerase ribozyme fitness (log ratio)” value is -0.51. As for U4C C27G A60U A119U U134C, the figure is at most -4.2; as for U4G C8G A24U A41G G58C C76A C85U C105A, at most -4.2. With A3G U6A U31G C32U A41C C51U G94U C96A G136U, the “polymerase ribozyme fitness (log ratio)” value is at most -4.2.

With U4C G42C G50U A97G A110U, the “polymerase ribozyme fitness (log ratio)” value was at most -4.2. As for U4G U9A A22G C51U U53A G86A A147C, the figure is at most -4.2; as for U4A U6A A28U A30G U44A G59C A60G C87U A89U A97C A107U, at most -4.2; as for A3G U33G G58A C75A A142C G152A, at most -4.2. Under A3U G70A A89C U139C U144A stands at most -4.2; under A3U U4A A12U U44A C85A A121G U135G A150C, at most -4.2; under C5A U7G G88U C105G G136A A137U G152U, at most -4.2. Under A3U A20C A21U G48A C57U G59A A66C G68C C85U C108U U134C G140U stands at most -4.2; under U4C A28C C75A G92A C108G, at most -4.2.

As for A3U A29C G42C U53G U101G A119U, the “polymerase ribozyme fitness (log ratio)” value is at most -4.2. Under A3U C76G A89U C93U G100A A137C G143U U144A stands at most -4.2; under A3U G25C C38U C85A C116A C123U, -2.27.

Regarding A3U C35U C54A C85G, the “polymerase ribozyme fitness (log ratio)” value was at most -4.2. For the variant C5A A47G C79A G83U G140A U146G, the “polymerase ribozyme fitness (log ratio)” value is at most -4.2.

As to U4G A24C C57G A64C, the “polymerase ribozyme fitness (log ratio)” value was at most -4.2. With A3G A39U A66U G71A G88A C96G C103G A107U A147C G152U, the “polymerase ribozyme fitness (log ratio)” value was at most -4.2. Under U4A A21G G34U G67C G92A C95A C96G U151G stands at most -4.2; under C5A A110C, at most -4.2. Under C5A C18U G59A G83A G86A C93U G94A A97G stands at most -4.2; under U4A U15G A91C C114U C125A, at most -4.2; under C5A A30C C38G U61A G68C C96A, at most -4.2.

In the case of A3G C75G A91U C95U A97C C108A A122C U127A C131U G140C A147C, the “polymerase ribozyme fitness (log ratio)” value is at most -4.2. As for A3U A52C G86U A119U G141U, the figure is -3.78; as for A3U A52C C96A A115C, at most -4.2; as for U4C A28U C38G, at most -4.2. Under U4G U7A G11U A26G A47C G80A C85U G140A stands at most -4.2; under A3U C51A U55A C116U C123U A142C, at most -4.2; under A3G C18G A21U C75G C85U, at most -4.2.

U4G A19U A39U U53G C87A A91G C105U A106G A110U A147U: the “polymerase ribozyme fitness (log ratio)” value is at most -4.2. Under C5A A22U A23U U53A G136C U148A U151G stands at most -4.2; under U4C A20C A40G G84U U127A, at most -4.2. As for A3U U15G G71C G100A U135A G141U, the figure is at most -4.2.

Regarding U4C C5G C32A A40C U82C A98G C103U A113C A150C, the “polymerase ribozyme fitness (log ratio)” value was at most -4.2. As for U4A A26G C54G A60C G81U G86A G112U, the figure is at most -4.2; as for C5A U7A U55A G70U C85G G128A U144C, at most -4.2; as for A3U C85U C96U C108G G140C, at most -4.2. As for A3U C57A, the figure is -0.997. Under A3U C57U stands 0.223.
